Source: publication PMC4336329 (PLoS ONE, 2015)
In all, about 310,000 compounds went through this assay and about 14,000 (4.5%) showed an effect of 50% or more. The effect is printed as a negative number. This is one part of the list.

Biological target: human ether-à-go-go-related gene (hERG) potassium channel (human, UniProt Q12809)
Test: primary screen, population patch clamp on CHO cells stably expressing hERG
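Further: peak tail current of the secondary pulse compared with the same well before compound.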

Sequence of human ether-à-go-go-related gene (hERG) potassium channel (Q12809 whole entry, looked up): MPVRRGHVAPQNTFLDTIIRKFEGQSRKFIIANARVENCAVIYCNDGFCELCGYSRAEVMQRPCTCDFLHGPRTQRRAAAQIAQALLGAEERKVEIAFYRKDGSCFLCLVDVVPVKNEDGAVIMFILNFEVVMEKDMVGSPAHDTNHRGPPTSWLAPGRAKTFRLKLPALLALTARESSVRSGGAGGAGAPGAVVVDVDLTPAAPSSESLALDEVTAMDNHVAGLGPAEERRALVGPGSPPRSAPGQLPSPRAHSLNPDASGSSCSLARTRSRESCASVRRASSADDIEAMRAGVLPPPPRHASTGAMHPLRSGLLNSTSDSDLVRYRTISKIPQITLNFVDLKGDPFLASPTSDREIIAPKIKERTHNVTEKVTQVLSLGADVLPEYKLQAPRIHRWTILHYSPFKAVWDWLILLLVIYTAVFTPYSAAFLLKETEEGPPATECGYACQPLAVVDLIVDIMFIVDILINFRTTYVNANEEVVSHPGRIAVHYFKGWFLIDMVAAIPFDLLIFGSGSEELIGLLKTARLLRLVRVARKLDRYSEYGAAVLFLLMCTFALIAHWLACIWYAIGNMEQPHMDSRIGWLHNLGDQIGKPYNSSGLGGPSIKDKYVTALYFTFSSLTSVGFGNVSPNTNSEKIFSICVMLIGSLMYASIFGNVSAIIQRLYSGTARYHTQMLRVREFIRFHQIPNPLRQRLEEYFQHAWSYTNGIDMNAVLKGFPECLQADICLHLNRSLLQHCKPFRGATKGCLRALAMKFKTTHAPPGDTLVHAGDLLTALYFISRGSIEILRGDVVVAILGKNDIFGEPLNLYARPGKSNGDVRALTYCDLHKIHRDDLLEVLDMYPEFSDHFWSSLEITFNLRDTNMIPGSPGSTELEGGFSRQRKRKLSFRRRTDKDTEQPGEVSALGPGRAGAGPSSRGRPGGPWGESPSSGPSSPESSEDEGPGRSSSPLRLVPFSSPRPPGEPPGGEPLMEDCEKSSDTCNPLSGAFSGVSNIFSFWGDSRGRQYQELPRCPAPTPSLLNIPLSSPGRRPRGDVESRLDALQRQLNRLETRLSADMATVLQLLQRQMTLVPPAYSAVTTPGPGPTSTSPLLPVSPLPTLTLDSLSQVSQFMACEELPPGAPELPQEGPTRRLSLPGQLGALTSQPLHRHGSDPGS

Row | SMILES | hERG current change (%, negative = inhibition) at 10uM [%]
1 | COc1ccc2ccccc2c1/C=N/n1cnnc1 | 1.52
2 | C#CCOCCOCCOCCNc1nc(N2CCN(C(=O)[C@H]([C@@H](C)CC)n3cc([C@@H](N)CC(C)C)nn3)CC2)nc(N2CCN(C(=O)[C@H]([C@@H](C)CC)n3cc([C@@H](N)CC(C)C)nn3)CC2)n1.Cl | 8.18
3 | COc1ccc(N2CCN(C(=O)COC(=O)COc3cccc(C(F)(F)F)c3)CC2)cc1 | -2.98
4 | Cn1cc([N+](=O)[O-])c(C(=O)NCc2cc3cc(Cl)ccc3[nH]2)n1 | -10.8
5 | C/C(=N\NC(=O)Cn1ccc(C(F)(F)F)n1)c1ccc2c(c1)OCO2 | 3
6 | COCCOC(=O)C1=C(C)NC2=C(C(=O)CC(C)(C)C2)C1c1cccnc1 (stereo not shown) | 15.2
7 | COc1cccc(C(=O)N/N=c2/oc3ccccc3cc2C(N)=O)c1 | -4.21
8 | O=C(CSc1nnc(Cc2ccccc2)o1)c1ccc(F)cc1 | -3.62
9 | COCC(C)N1CCC(n2nccc2NC(=O)c2ccc3c(c2)OCO3)CC1 (stereo not shown) | 6.9
10 | Cc1cnc(CN2CCCC(C(=O)c3ccc4c5c(cccc35)CC4)C2)[nH]1 (stereo not shown) | -31.7
11 | Cc1ccc(NC(=O)NNC(=O)C2CC(c3cccnc3)=NO2)cc1 (stereo not shown) | 4.19
12 | C/C(CC(=O)Nc1cccc(Br)c1)=N\NC(=O)c1ccc(O)cc1O | 17.3
13 | O=C(CSc1ccc(Cl)cc1)N1CCN(c2c(Cl)cccc2[N+](=O)[O-])CC1 | -17.2
14 | Cc1nc2ccccc2c(=O)n1-c1ccc(Br)cn1 | -12.1
15 | O=[N+]([O-])c1ccccc1S(=O)(=O)NCc1ccco1 | 0.0868
16 | Clc1ccc(CSc2nnc(-c3ccncc3)o2)cc1 | -11.5
17 | COc1ccc(OC)c(S(=O)(=O)Nc2cc(C(=O)O)ccc2N2CC3CC(C2)c2cccc(=O)n2C3)c1 (stereo not shown) | 16.8
18 | COC(=O)c1ccc(NC(=O)CSc2nnc(-c3ccccc3Br)n2-c2ccccc2)cc1 | 3.33
19 | Cc1nnc(SCC(=O)O)o1 | 15
20 | Clc1cccc(-c2sc(Nc3ccccc3)n[n+]2-c2ccccc2)c1Cl.[Cl-] | 5.53
21 | O=C(Nc1ccccc1C(=O)NCCN1CCOCC1)c1ccc(Cl)cc1Cl | -9.15
22 | C/C(=N\N1CCCCCC1)c1c(O)n(-c2ccc(Cl)cc2)c(=O)[nH]c1=O | 7.42
